Laboratory results as given in PMC11772845.
These are yes or no findings as the source states them, for the method shown. In cells and extracts the contact can be indirect. Some binding calls cover weakened binding; strength is not graded here.

Protein sequences, listed by entry. Tags and fused reporters are not part of them.
UniProt P00401: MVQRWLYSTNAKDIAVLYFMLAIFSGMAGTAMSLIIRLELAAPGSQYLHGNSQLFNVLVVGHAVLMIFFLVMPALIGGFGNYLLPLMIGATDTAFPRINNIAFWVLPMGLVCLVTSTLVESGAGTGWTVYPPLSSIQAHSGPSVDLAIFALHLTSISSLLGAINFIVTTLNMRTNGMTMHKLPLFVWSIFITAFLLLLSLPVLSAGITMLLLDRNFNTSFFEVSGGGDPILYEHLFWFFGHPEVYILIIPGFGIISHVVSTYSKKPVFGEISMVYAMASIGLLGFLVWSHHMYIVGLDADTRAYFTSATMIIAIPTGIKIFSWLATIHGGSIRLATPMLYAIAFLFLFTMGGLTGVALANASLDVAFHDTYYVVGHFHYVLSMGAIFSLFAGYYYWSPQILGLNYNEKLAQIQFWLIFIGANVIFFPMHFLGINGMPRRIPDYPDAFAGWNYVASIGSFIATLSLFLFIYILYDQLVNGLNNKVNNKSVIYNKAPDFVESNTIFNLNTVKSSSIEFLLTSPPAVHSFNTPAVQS

T1: Mic60_(ProtA) (S. cerevisiae) (UniProt P36112)
T1 sequence: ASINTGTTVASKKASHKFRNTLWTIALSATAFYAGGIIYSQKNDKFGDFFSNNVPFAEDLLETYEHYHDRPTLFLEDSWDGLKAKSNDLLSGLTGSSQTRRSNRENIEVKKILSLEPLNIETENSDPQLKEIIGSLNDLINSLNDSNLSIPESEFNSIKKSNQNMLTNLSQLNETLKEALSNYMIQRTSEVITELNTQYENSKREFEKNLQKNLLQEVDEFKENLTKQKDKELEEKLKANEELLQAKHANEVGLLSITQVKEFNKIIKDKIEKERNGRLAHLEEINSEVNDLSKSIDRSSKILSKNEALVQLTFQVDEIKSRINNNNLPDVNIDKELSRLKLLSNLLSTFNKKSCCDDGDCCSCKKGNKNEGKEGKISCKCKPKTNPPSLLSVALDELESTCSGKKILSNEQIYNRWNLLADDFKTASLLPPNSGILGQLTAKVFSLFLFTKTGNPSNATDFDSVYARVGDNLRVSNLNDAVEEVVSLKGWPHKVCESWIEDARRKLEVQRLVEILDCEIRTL

T2: Mic12_(ProtA) (S. cerevisiae) (UniProt P38341)
T2 sequence: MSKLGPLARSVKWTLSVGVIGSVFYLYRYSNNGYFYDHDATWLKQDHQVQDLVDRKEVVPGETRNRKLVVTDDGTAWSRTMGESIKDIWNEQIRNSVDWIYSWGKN


Columns and labels:
[1] = target: T1, Mic60_(ProtA) (S. cerevisiae); experiment: co-IP; protein A- or TAP-tagged bait captured on IgG-Sepharose from mitochondria solubilised in 1% digitonin (20 mM Tris-HCl pH 7.4, 50 mM NaCl, 0.1 mM EDTA, 10% glycerol), washed with 0.3% digitonin, eluted with TEV protease at 4 °C; eluates analysed by SDS-PAGE or BN-PAGE and western blot; untagged wild type as control; also done with rho-, mic10Δ (Mic60 bait), mar26Δ, rip1Δ and Mar26-overexpressing mitochondria
[2] = target: T1, Mic60_(ProtA) (S. cerevisiae); experiment: co-IP; [^35S]-labelled precursor imported into isolated mitochondria that carry the protein A-tagged bait; then digitonin solubilisation, IgG chromatography, SDS-PAGE (or two-dimensional gel) and autoradiography
[3] = target: T1, Mic60_(ProtA) (S. cerevisiae); experiment: condition: only imported into wild-type mitochondria that were mixed with Mic60_(ProtA) mitochondria before lysis (post-lysis control); co-IP; post-lysis control: [^35S]-labelled precursor imported into wild-type mitochondria, which were re-isolated and mixed with untreated Mic60_(ProtA) mitochondria before digitonin solubilisation and IgG chromatography; autoradiography
[4] = target: T2, Mic12_(ProtA) (S. cerevisiae); experiment: co-IP; as a1, from Mic12_(ProtA)mic60Δ and Mic12_(ProtA)mic10Δ mitochondria; eluates on BN-PAGE and western blot

binding [1]	binding [2]	binding [3]	binding [4]	Molecule
binds				Cox1 (from UniProt P00401 1-534)
	binds	no binding		[^35S]-labeled Cox5a (protein, UniProt P00424 1-153, [^35S]methionine label) MLRNTFTRAGGLSRITSVRFAQTHALSNAAVMDLQSRWENMPSTEQQDIVSKLSERQKLPWAQLTEPEKQAVWYISYGEWGPRRPVLNKGDSSFIAKGVAAGLLFSVGLFAVVRMAGGQDAKTMNKEWQLKSDEYLKSKNANPWGGYSQVQSK
	binds	no binding		[^35S]-labeled Cox13 (protein, UniProt P32799 1-129, [^35S]methionine label) MFRQCAKRYASSLPPNALKPAFGPPDKVAAQKFKESLMATEKHAKDTSNMWVKISVWVALPAIALTAVNTYFVEKEHAEHREHLKHVPDSEWPRDYEFMNIRSKPFFWGDGDKTLFWNPVVNRHIEHDD
			binds weakly	Cox4 (protein, UniProt P04037 26-155) QQKPVVKTAQNLAEVNGPETLIGPGAKEGTVPTDLDQETGLARLELLGKLEGIDVFDTKPLDSSRKGTMKDPIIIESYDDYRYVGCTGSPAGSHTIMWLKPTVNEVARCWECGSVYKLNPVGVPNDDHHH

Molecule	binding [1]	binding [2]	binding [3]	binding [4]
[^35S]-labeled Qcr8 (protein, UniProt P08525 1-94, [^35S]methionine label) MGPPSGKTYMGWWGHMGGPKQKGITSYAVSPYAQKPLQGIFHNAVFNSFRRFKSQFLYVLIPAGIYWYWWKNGNEYNEFLYSKAGREELERVNV		binds	no binding	
